PubChem BioAssay AID360 (National Center for Advancing Translational Sciences (NCATS), 2006)
Among all 48,000 compounds or so, about 550 (1.1%) were called active. Another 4% or so got no clear call; they are omitted. No stated cut-off is given here; in the data, active means potency below about 15 µM; inconclusive means mostly about 16 µM to 33 µM; inactive means weaker than that. The list shows a part of the results.

molecular target: Lysosomal acid glucosylceramidase (Homo sapiens) (UniProt P04062); assay: Glucocerebrosidase; conditions: purified enzyme, resorufin glucoside fluorescence (screen aimed at inhibitors), 20 min;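 further: the screen sought inhibitors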
Chain of UniProt P04062 (P04062 whole entry, looked up): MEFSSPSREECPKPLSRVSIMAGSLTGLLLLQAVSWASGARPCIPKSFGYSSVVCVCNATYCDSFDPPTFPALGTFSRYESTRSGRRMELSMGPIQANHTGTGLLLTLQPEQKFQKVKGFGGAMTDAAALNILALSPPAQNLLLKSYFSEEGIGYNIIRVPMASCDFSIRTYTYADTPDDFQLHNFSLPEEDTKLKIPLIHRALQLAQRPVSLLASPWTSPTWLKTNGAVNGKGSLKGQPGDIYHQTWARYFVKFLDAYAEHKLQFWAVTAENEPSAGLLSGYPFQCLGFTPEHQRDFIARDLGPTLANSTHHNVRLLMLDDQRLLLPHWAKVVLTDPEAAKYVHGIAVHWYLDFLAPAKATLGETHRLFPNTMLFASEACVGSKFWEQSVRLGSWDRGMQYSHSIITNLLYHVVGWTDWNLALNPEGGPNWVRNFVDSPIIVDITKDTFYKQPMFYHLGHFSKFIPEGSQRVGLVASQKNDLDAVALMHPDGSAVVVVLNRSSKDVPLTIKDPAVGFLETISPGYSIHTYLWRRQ
Outline: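 Wild-type enzyme at 0.2 nM final in 50mM citric acid/KH2PO4, 10mM sodium taurocholate, 0.01% tween-20, pH 5.9, with resorufin beta-D-glucopyranoside at 30 uM final. Compounds titrated, 20 min at RT, red fluorescence read; AC50 from titration.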
Potency means the concentration at half of the fitted maximal effect.

Potency, inactive:
Cc1ccc2c(c1)c1c(n2C)C(C(N)=O)CCC1 (stereo unspecified) > 76.9 µM, CCOC(=O)C1CCN(S(=O)(=O)c2cccc(-c3cn4cccnc4n3)c2)CC1 > 76.9 µM, Cc1ccc(C)c(S(=O)(=O)NCc2ccc(C(=O)N3CCN(C)CC3)cc2)c1 > 76.9 µM, O=C(Cc1ccsc1)NCC(c1ccco1)N1CCCCC1 (stereo unspecified) > 76.9 µM, COC(=O)c1ccccc1NC(=O)c1ccc(-c2ccccc2F)o1 > 76.9 µM, O=C(c1csc2c1CCCC2)N1CCN(c2ncccn2)CC1 > 76.9 µM, Nc1cnn(C2CCCO2)c(=O)n1 (stereo unspecified) > 76.9 µM, Cc1ccc(-c2cccc(NC(=O)C3C(C(=O)O)[C@@H]4C=C[C@H]3C4)c2)o1 (stereo partly specified) > 76.9 µM, COc1ccc(/C(CC2(O)C(=O)Nc3ccccc32)=N\O)cc1 (stereo unspecified) > 76.9 µM, CCc1ccc2[nH]c(=O)c(CN(CCN(CC)CC)C(=O)Nc3ccccc3OC)cc2c1 > 76.9 µM, COc1ccc(CN(C(=O)c2cccs2)c2nccs2)cc1OC > 76.9 µM, COc1ccccc1NC(=O)CCC(=O)Nc1nnc(C(F)(F)F)s1 > 76.9 µM, O=C(c1ccc(F)cc1)C(CN1CCOCC1)c1ccccc1 (stereo unspecified) > 76.9 µM, COc1cc(NC(=O)CSc2nccc(C)n2)c(C(=O)O)cc1OC > 76.9 µM, CCOC(=O)c1c(-c2ccsc2)csc1N > 76.9 µM, Cc1ccc(-c2nc(C3CCCN(S(=O)(=O)c4ccc(C(F)(F)F)cc4)C3)no2)cc1 (stereo unspecified) > 76.9 µM, Cn1cccc1C(=O)NC(=O)COC(=O)c1ccccc1O > 76.9 µM, COc1ccc(CN(Cc2nc3ccccc3c(=O)[nH]2)C(=O)NC2CCCCC2)cc1 > 76.9 µM, CC(NC(=O)c1ccco1)c1ccc2c(c1)OCCO2 (stereo unspecified) > 76.9 µM, O=C(CN1C(=O)CSc2ccccc21)Nc1ccc2c(c1)OCCO2 > 76.9 µM, O=C(CCc1ccccc1)NCCCN1CCOCC1 > 76.9 µM, Cc1cc(C)c2c(=O)n(-c3ccccc3)[nH]c2n1 > 76.9 µM, Cc1c(C(=O)NC2CCCCC2)oc2c1C(=O)CC(C)(C)C2 > 76.9 µM, CC(C)C(=O)Nc1nnc(CCc2nnc(NC(=O)C(C)C)s2)s1 > 76.9 µM, CC(=O)c1cc(CN2C(=O)c3ccccc3C2=O)cs1 > 76.9 µM, Cn1c(SCc2ccccc2F)nnc1-c1cnccn1 > 76.9 µM
